{"source": "ChEMBL document CHEMBL4888484", "about": "“Replenishing the malaria drug discovery pipeline: Screening and hit evaluation of the MMV Hit Generation Library 1 (HGL1) against asexual blood stage Plasmodium falciparum ,using a nano luciferase reporter read-out” (2022)", "note": "In all, about 150,000 compounds went through this assay and about 540 (0.36%) showed an effect of 50% or more. The list shows a part of the results.", "data": [{"tested_on": "Plasmodium falciparum", "assay": "Primary screen in NF54 nanoGlo assay, in single point, at 2uM, 72h; a lower Z score goes with more inhibition", "format": "functional, Erythrocyte", "details": "timepoint 72 hour", "units": {"% Inhibition": "%"}, "values": [{"smiles": "Brc1cncc(O[C@H]2CCN(CCc3ccncc3)C2)c1", "% Inhibition": 0, "Z score": -0.05}, {"smiles": "O=S(=O)(c1cccs1)N1CC(n2nccn2)C1", "% Inhibition": -8, "Z score": 0.93}, {"smiles": "CN(C)C(=O)NCc1cc2n(n1)CCCN(Cc1cc3ccccc3o1)C2", "% Inhibition": -14, "Z score": 1.73}, {"smiles": "CCC1(CNc2nc(N(C)C)ns2)CCC1", "% Inhibition": -14, "Z score": 2.75}, {"smiles": "CCn1cc(Br)cc1C(=O)N1C(C)COCC1C", "note": "(configuration not stated)", "% Inhibition": -10, "Z score": 1.06}, {"smiles": "COc1ccc2ccn([C@@H](C)C(=O)N3CCN(C(C)=O)CC3)c(=O)c2c1", "% Inhibition": 2, "Z score": -0.36}, {"smiles": "CC1(C)CN(C(=O)Cn2nnc3c2CCCC3)[C@H]2CCC[C@H]21", "% Inhibition": 3, "Z score": -0.52}, {"smiles": "Cc1c[nH]c([C@H](C)NC(=O)CCn2ccnc2)n1", "% Inhibition": 5, "Z score": -0.49}, {"smiles": "CCC1Oc2cc(S(=O)(=O)N3CCCC(C(=O)N4CCCc5ccccc54)C3)c(C)cc2NC1=O", "note": "(configuration not stated)", "% Inhibition": -6, "Z score": 0.65}, {"smiles": "Cc1n[nH]cc1CNC(=O)NCC(C)(C)C(C)C", "% Inhibition": -12, "Z score": 1.61}, {"smiles": "O=C(Cn1cc(C(=O)N2CC3CCCC3C2)cn1)NC1CCCCC1", "note": "(configuration not stated)", "% Inhibition": -9, "Z score": 1.26}, {"smiles": "CCOc1c(Br)cc(Cl)cc1NCC(=O)NC(=O)NCC(C)C", "% Inhibition": -7, "Z score": 1.36}, {"smiles": "CC1=C(C(=O)N2CC[C@@H]3OCC(=O)N[C@H]3C2)CCC1", "% Inhibition": -5, "Z score": 0.4}, {"smiles": "Cc1ccccc1-c1ncc(CN2CCOC[C@@H]2CO)cn1", "% Inhibition": 2, "Z score": -0.22}, {"smiles": "Cc1nnc(CC(=O)N(Cc2cc(F)ccc2F)c2ccccc2)o1", "% Inhibition": -9, "Z score": 1.21}, {"smiles": "COc1ccc(N2CCC(C(=O)N3CCN(c4cccc(Cl)c4)CC3)CC2)nn1", "% Inhibition": 5, "Z score": -0.68}, {"smiles": "CN1CCCN(S(=O)(=O)c2cccs2)c2ccccc21", "% Inhibition": 6, "Z score": -1.16}, {"smiles": "Cc1ccc(CNC(=O)N(C)CCc2cccs2)cn1", "% Inhibition": 5, "Z score": -0.71}, {"smiles": "C[C@H]1C(=O)NCCN1C(=O)C1CC=CC1", "% Inhibition": -10, "Z score": 1.62}, {"smiles": "COCCN1CCN(c2nnc(COc3ccc(C)c(C)c3)n2CC2CCCO2)CC1C", "note": "(configuration not stated)", "% Inhibition": -4, "Z score": 0.52}, {"smiles": "CN(CCc1cnn(C)c1)CCN1C[C@@H]2CC[C@H]1C2", "% Inhibition": -4, "Z score": 0.64}, {"smiles": "COc1nn(C)cc1NC(=O)NC1(C(C)(C)c2ccccc2)CC1", "% Inhibition": -7, "Z score": 1.18}, {"smiles": "O=C(O)C(c1ccccc1F)N1CCC(c2cccnc2)C1", "note": "(configuration not stated)", "% Inhibition": -10, "Z score": 2.03}, {"smiles": "O=C(NCC1CCC2(CC1)OCCO2)c1ccccn1", "% Inhibition": -2, "Z score": 0.28}, {"smiles": "Cc1nc(-c2ccc(NC(=O)CNC(=O)C(C)(C)C)cc2)co1", "% Inhibition": 0, "Z score": -0.07}, {"smiles": "O=C(NC(Cc1ccccn1)[C@H]1C[C@H](O)C1)c1ccc(CO)o1", "note": "(some centres not stated)", "% Inhibition": -6, "Z score": 1}, {"smiles": "COc1ccccc1N1CCN(C(=O)C[C@H]2CCCCN(Cc3ccccc3)C2=O)CC1", "% Inhibition": 5, "Z score": -0.82}, {"smiles": "COCc1nc2n(n1)C[C@@H](Nc1ccnc(C)c1)CC2", "% Inhibition": -1, "Z score": 0.18}, {"smiles": "CC1CC(C(=O)NCCCc2ncn(C)n2)CC(C)(C)C1", "note": "(configuration not stated)", "% Inhibition": 7, "Z score": -0.86}, {"smiles": "N#Cc1cccc(C(=O)N2CCC(n3nccn3)CC2)c1", "% Inhibition": 7, "Z score": -1.18}, {"smiles": "CCc1nc(C#N)cc(NC2CCN(S(N)(=O)=O)CC2)n1", "% Inhibition": 0, "Z score": 0.05}, {"smiles": "CCNC(=O)N1CC(C(=O)NCc2cccnc2)CCC1c1ccc(F)c(C)c1", "note": "(configuration not stated)", "% Inhibition": -19, "Z score": 1.84}, {"smiles": "COc1cc(OC)c(NC(=O)[C@@H]2CCn3c(C(=O)c4ccccc4)ccc32)cc1Cl", "% Inhibition": -1, "Z score": 0.19}, {"smiles": "OCc1ccccc1-c1nccc2ccccc12", "% Inhibition": -6, "Z score": 1.09}, {"smiles": "O=C(O)C1CCN(C(=O)C2CC2c2ccc3ccccc3c2)CC1", "note": "(configuration not stated)", "% Inhibition": -15, "Z score": 2.37}, {"smiles": "O=C(NCCc1ccc(O)cc1)Nc1cc(N2CCOCC2)ccc1Cl", "% Inhibition": -6, "Z score": 0.96}, {"smiles": "CC(C)Cn1cc(CN[C@H](c2cccs2)C2(CO)CCC2)cn1", "% Inhibition": -10, "Z score": 1.18}, {"smiles": "CCN(CC(=O)NC(C)(C)C)C(=O)COc1ccc(Br)cc1F", "% Inhibition": -5, "Z score": 0.83}, {"smiles": "Cc1nc(N(C)C2CCCCC2)ncc1[C@H](C)NS(=O)(=O)N(C)C", "% Inhibition": -8, "Z score": 1.18}, {"smiles": "CC1CN(Cc2nc(N(C)C)no2)CC2(CCOC2)O1", "note": "(configuration not stated)", "% Inhibition": 7, "Z score": -0.87}, {"smiles": "CCc1nsc(N2CCOC[C@@H]2Cc2ccccc2)n1", "% Inhibition": 3, "Z score": -0.47}, {"smiles": "CC1CCCN(C(=O)c2ccc3c(c2)CCC(=O)N3)C1CN", "note": "(configuration not stated)", "% Inhibition": -13, "Z score": 1.81}, {"smiles": "COc1cccc(NC(=O)CC(F)(F)F)c1", "% Inhibition": 2, "Z score": -0.26}, {"smiles": "C[C@@H](NC(=O)CN1C[C@@H]2CCC[C@]2(C(N)=O)C1)c1ccccc1", "% Inhibition": -14, "Z score": 2.28}, {"smiles": "Cc1cccc(C)c1NC(=O)N1C[C@@H](C)N(C)[C@@H](C)C1", "% Inhibition": 14, "Z score": -1.88}, {"smiles": "CC1CCN(c2nc(CS(=O)(=O)c3ccccc3)cs2)CC1", "% Inhibition": -3, "Z score": 0.44}, {"smiles": "CN(C)C(=O)Cn1ccc(-c2cccc(-c3ccc(C#N)cc3)c2)n1", "% Inhibition": -11, "Z score": 1.02}, {"smiles": "COC(=O)C12CCCC1CN(Cc1scnc1C)C2", "note": "(configuration not stated)", "% Inhibition": -1, "Z score": 0.09}, {"smiles": "CCOC(=O)C1CCN(c2nc(-c3ccccc3Cl)c3c(N)n(C)nc3n2)CC1", "% Inhibition": 0, "Z score": 0.07}, {"smiles": "O=C(c1cc2n(n1)CCCO2)N1CC[C@H](Oc2cnc3ccccc3n2)C1", "% Inhibition": 0, "Z score": -0.05}, {"smiles": "CC(=O)N1N=C(c2cccc(Cl)c2)OC12CCCC2", "% Inhibition": -7, "Z score": 1.16}, {"smiles": "CC(C)N1CCC2(CC1)N=C(c1ccccc1O)C[C@@H](c1ccccc1O)N2", "% Inhibition": -16, "Z score": 1.81}, {"smiles": "Cc1ccc(NC(=O)[C@@H]2CCc3cc(F)ccc32)c(C)n1", "% Inhibition": 2, "Z score": -0.34}, {"smiles": "CCNc1ncc(C(=O)N2CCCC[C@@H]2CCN2CCN(C)CC2)cn1", "% Inhibition": -2, "Z score": 0.33}, {"smiles": "CN(CCc1ncon1)C(=O)c1cn2cc(Cl)cnc2n1", "% Inhibition": -8, "Z score": 1.16}, {"smiles": "CCOCc1nc2c(c(N(C)Cc3ccon3)n1)CCNCC2", "% Inhibition": -12, "Z score": 1.27}]}]}
